# This is one part of the list.
# B1: SSR1 (Sclerotium rolfsii), A0A0M3KL30 (protein)
# chain: TYKITVRVYQTNPDAFFHPVEKTVWKYANGGTWTITDDQHVLTMGGSGTSGTLRFHADNGESFTATFGVHNYKRWCDIVTNLAADETGMVINQQYYSQKNREEARERQLSNYQVKNAKGRNFQIVYTEAEGNDLHANLIIG
# Columns and labels:
# Assay in all cases: glycan array binding signal (z-score within array); higher = stronger binding
# Details in all cases: glycan notation: IUPAC condensed, linker removed
# [1] = biological target: Fuc(a1-2)[GalNAc(a1-3)]Gal(b1-3)GlcNAc(b1-3)GalNAc
# How it was run: (§1)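 The Consortium for Functional Glycomics database supplied 3228 glycan arrays, of which those lacking an available protein sequence were dropped. The binding signal, a within-array Z-score, was averaged across arrays of the same protein sequence and across linkers. Negative scores can be read as non-binding.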
# [2] = biological target: Fuc(a1-2)[GalNAc(a1-3)]Gal(b1-3)GlcNAc(b1-6)GalNAc
# How it was run: as §1
# [3] = biological target: Fuc(a1-2)[GalNAc(a1-3)]Gal(b1-4)Glc
# How it was run: as §1
# [4] = biological target: Fuc(a1-2)[GalNAc(a1-3)]Gal(b1-4)GlcNAc
# How it was run: as §1
# [5] = biological target: Fuc(a1-2)[GalNAc(a1-3)]Gal(b1-4)GlcNAc(b1-2)Man
# How it was run: as §1
# [6] = biological target: Fuc(a1-2)[GalNAc(a1-3)]Gal(b1-4)GlcNAc(b1-2)Man(a1-3)[Fuc(a1-2)[GalNAc(a1-3)]Gal(b1-4)GlcNAc(b1-2)Man(a1-6)]Man(b1-4)GlcNAc(b1-4)GlcNAc
# How it was run: as §1
# [7] = biological target: Fuc(a1-2)[GalNAc(a1-3)]Gal(b1-4)GlcNAc(b1-2)Man(a1-3)[Fuc(a1-2)[GalNAc(a1-3)]Gal(b1-4)GlcNAc(b1-2)Man(a1-6)]Man(b1-4)GlcNAc(b1-4)[Fuc(a1-6)]GlcNAc
# How it was run: as §1
# [8] = biological target: Fuc(a1-2)[GalNAc(a1-3)]Gal(b1-4)GlcNAc(b1-3)Gal(b1-4)GlcNAc
# How it was run: as §1
# [9] = biological target: Fuc(a1-2)[GalNAc(a1-3)]Gal(b1-4)GlcNAc(b1-3)Gal(b1-4)GlcNAc(b1-3)Gal(b1-4)GlcNAc
# How it was run: as §1
# [10] = biological target: Fuc(a1-2)[GalNAc(a1-3)]Gal(b1-4)GlcNAc(b1-3)GalNAc
# How it was run: as §1
# [11] = biological target: Fuc(a1-2)[GalNAc(a1-3)]Gal(b1-4)GlcNAc(b1-3)[Fuc(a1-2)[GalNAc(a1-3)]Gal(b1-4)GlcNAc(b1-6)]GalNAc
# How it was run: as §1
# [12] = biological target: Fuc(a1-2)[GalNAc(a1-3)]Gal(b1-4)GlcNAc(b1-6)GalNAc
# How it was run: as §1
# [13] = biological target: Fuc(a1-2)[GalNAc(a1-3)]Gal(b1-4)[Fuc(a1-3)]GlcNAc
# How it was run: as §1
# [14] = biological target: Fuc(a1-2)[GalNAc(a1-3)]Gal(b1-4)[Fuc(a1-3)]GlcNAc(b1-3)GalNAc
# How it was run: as §1
# [15] = biological target: Fuc(a1-2)[GalNAc(a1-4)]Gal(b1-4)GlcNAc
# How it was run: as §1
# [16] = biological target: Fuc(a1-2)[GalNAc(b1-3)]Gal
# How it was run: as §1
# Fuc(a1-3)GlcNAc = biological target: Fuc(a1-3)GlcNAc
# How it was run: as §1
# [17] = biological target: Fuc(a1-3)[Gal(b1-4)]Glc6S
# How it was run: as §1
# [18] = biological target: Fuc(a1-3)[Gal(b1-4)]GlcNAc
# How it was run: as §1
# [19] = biological target: Fuc(a1-3)[Gal(b1-4)]GlcNAc(b1-2)Man
# How it was run: as §1
# [20] = biological target: Fuc(a1-3)[Gal(b1-4)]GlcNAc(b1-2)Man(a1-3)[Fuc(a1-3)[Gal(b1-4)]GlcNAc(b1-2)Man(a1-6)]Man(b1-4)GlcNAc(b1-4)GlcNAc
# How it was run: as §1
# [21] = biological target: Fuc(a1-3)[Gal(b1-4)]GlcNAc(b1-2)Man(a1-3)[Fuc(a1-3)[Gal(b1-4)]GlcNAc(b1-2)Man(a1-6)]Man(b1-4)GlcNAc(b1-4)[Fuc(a1-6)]GlcNAc
# How it was run: as §1
# [22] = biological target: Fuc(a1-3)[Gal(b1-4)]GlcNAc(b1-3)Gal(b1-3)[Fuc(a1-4)]GlcNAc
# How it was run: as §1
# [23] = biological target: Fuc(a1-3)[Gal(b1-4)]GlcNAc(b1-3)Gal(b1-4)[Fuc(a1-3)]GlcNAc
# How it was run: as §1
# [24] = biological target: Fuc(a1-3)[Gal(b1-4)]GlcNAc(b1-3)Gal(b1-4)[Fuc(a1-3)]GlcNAc(b1-3)Gal(b1-4)[Fuc(a1-3)]GlcNAc
# How it was run: as §1
# [25] = biological target: Fuc(a1-3)[Gal(b1-4)]GlcNAc(b1-3)GalNAc
# How it was run: as §1
# [26] = biological target: Fuc(a1-3)[Gal(b1-4)]GlcNAc(b1-6)GalNAc
# How it was run: as §1
# [27] = biological target: Fuc(a1-3)[Gal(b1-4)]GlcNAc(b1-6)[Gal(b1-3)GlcNAc(b1-3)]Gal(b1-4)Glc
# How it was run: as §1
# [28] = biological target: Fuc(a1-3)[Gal(b1-4)]GlcNAc6S
# How it was run: as §1
# [29] = biological target: Fuc(a1-3)[Gal3S(b1-4)]Glc
# How it was run: as §1
# [30] = biological target: Fuc(a1-3)[Gal3S(b1-4)]GlcNAc
# How it was run: as §1
# [31] = biological target: Fuc(a1-3)[Gal3S(b1-4)]GlcNAc6S
# How it was run: as §1
# [32] = biological target: Fuc(a1-3)[GalNAc(b1-4)]GlcNAc
# How it was run: as §1
# [33] = biological target: Fuc(a1-3)[GalNAc(b1-4)]GlcNAc6S
# How it was run: as §1
# Fuc(a1-4)GlcNAc = biological target: Fuc(a1-4)GlcNAc
# How it was run: as §1
# Fuc(b1-3)GlcNAc = biological target: Fuc(b1-3)GlcNAc
# How it was run: as §1
# Gal(a1-2)Gal = biological target: Gal(a1-2)Gal
# How it was run: as §1
# Gal(a1-3)Gal = biological target: Gal(a1-3)Gal
# How it was run: as §1
# Gal(a1-3)Gal(b1-3)GlcNAc = biological target: Gal(a1-3)Gal(b1-3)GlcNAc
# How it was run: as §1
# [34] = biological target: Gal(a1-3)Gal(b1-3)GlcNAc(b1-2)Man
# How it was run: as §1
# [35] = biological target: Gal(a1-3)Gal(b1-3)GlcNAc(b1-2)Man(a1-3)[Gal(a1-3)Gal(b1-3)GlcNAc(b1-2)Man(a1-6)]Man(b1-4)GlcNAc(b1-4)GlcNAc
# How it was run: as §1
# [36] = biological target: Gal(a1-3)Gal(b1-3)GlcNAc(b1-3)GalNAc
# How it was run: as §1
# [37] = biological target: Gal(a1-3)Gal(b1-3)GlcNAc(b1-6)GalNAc
# How it was run: as §1
# [38] = biological target: Gal(a1-3)Gal(b1-3)[Fuc(a1-4)]GlcNAc(b1-2)Man(a1-3)[Gal(a1-3)Gal(b1-3)[Fuc(a1-4)]GlcNAc(b1-2)Man(a1-6)]Man(b1-4)GlcNAc(b1-4)GlcNAc
# How it was run: as §1
# Gal(a1-3)Gal(b1-4)Glc = biological target: Gal(a1-3)Gal(b1-4)Glc
# How it was run: as §1
binder,measurement,setting,value
B1,glycan array binding signal (z-score),[1],-0.32
same,glycan array binding signal (z-score),[2],-0.202
same,glycan array binding signal (z-score),[3],-0.322
same,glycan array binding signal (z-score),[4],0.001
same,glycan array binding signal (z-score),[5],0.194
same,glycan array binding signal (z-score),[6],0.358
same,glycan array binding signal (z-score),[7],-0.288
same,glycan array binding signal (z-score),[8],0.292
same,glycan array binding signal (z-score),[9],0.332
same,glycan array binding signal (z-score),[10],0.683
same,glycan array binding signal (z-score),[11],0.501
same,glycan array binding signal (z-score),[12],0.463
same,glycan array binding signal (z-score),[13],-0.302
same,glycan array binding signal (z-score),[14],-0.311
same,glycan array binding signal (z-score),[15],-0.325
same,glycan array binding signal (z-score),[16],-0.304
same,glycan array binding signal (z-score),Fuc(a1-3)GlcNAc,-0.345
same,glycan array binding signal (z-score),[17],-0.347
same,glycan array binding signal (z-score),[18],-0.316
same,glycan array binding signal (z-score),[19],-0.339
same,glycan array binding signal (z-score),[20],-0.34
same,glycan array binding signal (z-score),[21],-0.33
same,glycan array binding signal (z-score),[22],-0.32
same,glycan array binding signal (z-score),[23],-0.32
same,glycan array binding signal (z-score),[24],-0.348
same,glycan array binding signal (z-score),[25],-0.338
same,glycan array binding signal (z-score),[26],-0.33
same,glycan array binding signal (z-score),[27],-0.353
same,glycan array binding signal (z-score),[28],-0.332
same,glycan array binding signal (z-score),[29],-0.333
same,glycan array binding signal (z-score),[30],-0.314
same,glycan array binding signal (z-score),[31],-0.323
same,glycan array binding signal (z-score),[32],-0.327
same,glycan array binding signal (z-score),[33],-0.345
same,glycan array binding signal (z-score),Fuc(a1-4)GlcNAc,-0.281
same,glycan array binding signal (z-score),Fuc(b1-3)GlcNAc,-0.33
same,glycan array binding signal (z-score),Gal(a1-2)Gal,-0.325
same,glycan array binding signal (z-score),Gal(a1-3)Gal,-0.34
same,glycan array binding signal (z-score),Gal(a1-3)Gal(b1-3)GlcNAc,-0.345
same,glycan array binding signal (z-score),[34],-0.345
same,glycan array binding signal (z-score),[35],-0.301
same,glycan array binding signal (z-score),[36],-0.33
same,glycan array binding signal (z-score),[37],0.063
same,glycan array binding signal (z-score),[38],-0.311
same,glycan array binding signal (z-score),Gal(a1-3)Gal(b1-4)Glc,-0.335
